Data: publication PMC4336329 (PLoS ONE, 2015)
In all, about 310,000 compounds went through this assay and about 14,000 (4.5%) showed an effect of 50% or more. The effect is printed as a negative number. This is one part of the list.

Target: human ether-à-go-go-related gene (hERG) potassium channel (human, UniProt Q12809)
Assay: primary screen, population patch clamp on CHO cells stably expressing hERG
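Further: peak tail current of the secondary pulse compared with the same well before compound.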

Sequence of human ether-à-go-go-related gene (hERG) potassium channel (Q12809 whole entry, looked up): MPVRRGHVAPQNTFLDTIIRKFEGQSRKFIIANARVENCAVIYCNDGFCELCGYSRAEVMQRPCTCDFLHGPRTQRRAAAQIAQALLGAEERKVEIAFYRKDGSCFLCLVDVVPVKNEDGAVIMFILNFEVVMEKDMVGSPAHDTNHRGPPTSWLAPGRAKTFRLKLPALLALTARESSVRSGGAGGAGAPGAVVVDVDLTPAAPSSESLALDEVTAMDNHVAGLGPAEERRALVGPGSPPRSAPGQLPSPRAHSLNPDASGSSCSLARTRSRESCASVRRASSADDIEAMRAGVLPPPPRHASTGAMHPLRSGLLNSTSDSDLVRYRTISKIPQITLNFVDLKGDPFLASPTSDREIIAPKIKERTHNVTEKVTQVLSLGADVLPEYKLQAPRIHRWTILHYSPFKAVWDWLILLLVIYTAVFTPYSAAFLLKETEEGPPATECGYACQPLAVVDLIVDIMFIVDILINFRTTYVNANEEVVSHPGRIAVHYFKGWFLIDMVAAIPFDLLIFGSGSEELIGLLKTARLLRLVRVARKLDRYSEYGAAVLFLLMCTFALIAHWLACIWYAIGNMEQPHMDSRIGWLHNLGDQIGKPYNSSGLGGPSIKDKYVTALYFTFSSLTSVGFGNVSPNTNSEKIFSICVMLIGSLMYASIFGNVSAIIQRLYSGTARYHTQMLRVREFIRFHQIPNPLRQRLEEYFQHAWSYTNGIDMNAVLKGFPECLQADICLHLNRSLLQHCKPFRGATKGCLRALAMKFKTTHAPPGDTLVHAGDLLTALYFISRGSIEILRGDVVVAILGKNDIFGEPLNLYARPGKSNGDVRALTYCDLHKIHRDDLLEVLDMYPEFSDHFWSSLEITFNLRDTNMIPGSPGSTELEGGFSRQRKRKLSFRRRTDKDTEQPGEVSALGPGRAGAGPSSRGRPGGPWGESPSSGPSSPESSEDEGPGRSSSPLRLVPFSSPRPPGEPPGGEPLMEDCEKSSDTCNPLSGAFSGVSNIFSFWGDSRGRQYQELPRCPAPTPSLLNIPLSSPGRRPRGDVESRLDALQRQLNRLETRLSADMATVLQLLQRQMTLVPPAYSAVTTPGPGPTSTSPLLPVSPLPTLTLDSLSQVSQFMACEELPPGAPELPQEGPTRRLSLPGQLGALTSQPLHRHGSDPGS

SMILES	hERG current change (%, negative = inhibition) at 10uM
Cc1cnc(C(=O)OCC(=O)NC23CC4CC(CC(C4)C2)C3)cn1	-14.9%
CN(CC(=O)Nc1ccc(F)cc1)c1ccc(S(=O)(=O)N2CCCC2)cn1	-14%
CCN(CC)c1ccc(NC(=S)NC(=O)Cc2ccccc2)cc1	13.5%
CC(=O)c1ccc(N=Nc2ccc(N(C)C)cc2)cc1	18.6%
Oc1ccc(/C=C/c2ccc3ccccc3n2)cc1	45.6%
COc1ccc(NC(=S)N2CCN(Cc3ccco3)CC2)c(OC)c1	-1.37%
COc1ccc2oc(=O)c(C(=O)Nc3cccc(C)c3)cc2c1	13.6%
O=C(c1cccc(Br)c1)N1CCN(c2ccc(N3CCOCC3)nn2)CC1	-25.2%
O=C(/C=C/c1ccco1)NC(=S)Nc1ccccc1O	20.3%
N#Cc1ccc(-c2ccc(C3Nc4ccccc4C(=O)N3O)o2)cc1 (stereo not drawn)	-5.97%
CCOC(=O)c1ccc(S(=O)(=O)NC2CC2)cc1	5.21%
Cc1ccc(Cl)cc1-c1ccc(/C=N/n2cnnc2)o1	-13%
COC(=O)c1c(NC(=O)C2C3CCC(O3)C2C(=O)O)sc2c1CCCCCC2 (stereo not drawn)	-4.13%
Cn1ccsc1=NC(=O)c1ccc(Cl)cc1	8.31%
N#C/C(=C\Nc1ccccc1SC(F)(F)F)c1nc(-c2ccc(Cl)cc2)cs1	16.1%
COc1ccc(C2c3ccc(O)cc3Oc3ncn(CCN4CCOCC4)c(=N)c32)cc1 (stereo not drawn)	-28.1%
CCOc1cc(NC(=O)C2CCCO2)c(OCC)cc1NC(=O)C1CC1 (stereo not drawn)	-14.6%
NC1=C(c2ccc([N+](=O)[O-])cc2)C(=O)CO1	3.56%
Cc1ccc(C(=O)N/C(=C\c2ccco2)C(=O)NCCCn2ccnc2)cc1C	-39.8%
COC(=O)C1(CO)NC(c2cccs2)C2C(=O)N(c3ccccc3)C(=O)C21 (stereo not drawn)	9.63%
COc1ccccc1N1C(=O)CC(N2CCN(c3ccc([N+](=O)[O-])cc3)CC2)C1=O (stereo not drawn)	-68.6%
CCOc1cc(/C=N/NC(=O)c2cc(C3CC3)[nH]n2)ccc1O	-14.8%
COc1ccc(OCC(O)CN2CCC(CN3C(=O)c4cccc5cccc(c45)C3=O)CC2)cc1.Cl (stereo not drawn)	-59.1%

SMILES	hERG current change (%, negative = inhibition) at 10uM
CC(C)c1cccc(C2=CC(=O)C[C@H](c3ccc(F)cc3)C2)c1	1.48%
COC(=O)c1ccc(NC(=O)c2cccc(OC)c2)cc1	-3.77%
O=C(NCCN1CCN(C(=O)c2ccc([N+](=O)[O-])cc2)CC1)C(=O)NCc1ccccc1	-78.9%
CCOC(=O)CNC(=O)CN1CCC(c2nc3ccccc3[nH]2)CC1	13.7%
Cn1c2ccccc2c(=O)c2cc(C#CC3=CCCCC3)ccc21	8.87%
Cc1ccc(S(=O)(=O)N2CCOCC2)cc1C(=O)NCCCn1ccnc1	15.6%
O=C1N/C(=C/c2cccn2-c2ccccc2)C(=O)N1c1cccc(Cl)c1	5.89%
COc1ccc(NS(=O)(=O)c2cc(NC(=O)c3cnc(C)cn3)ccc2N2CCCCC2)cc1	15.3%
Cc1cc(C)n2nc(C(=O)OCC(=O)N3CCC3)nc2n1	21.4%
Cc1cc(C(=O)NC2CCCc3c2cnn3-c2ccc(C)c(C)c2)nc(C)n1 (stereo not drawn)	-4.32%
COc1ccc(CCNC(=O)CN2CCN(c3ccccc3Cl)CC2)cc1	-19%
Cc1ccc(OCCNC(=O)CNC(=O)c2ccc(C)cc2)cc1	9.37%
Cc1cc(OC(=O)c2ccc(S(=O)(=O)N3CCCCC3)cc2)c([N+](=O)[O-])c(=O)[nH]1	25.7%
CCCNC(=O)C1CCN(S(=O)(=O)c2ccc(Br)cc2)CC1	-1.78%
O=c1c(Cl)c(N2CCNCC2)cnn1C12CC3CC(CC(C3)C1)C2	10.4%
COc1ccccc1N1CCN(C(=O)c2cc3c(s2)CCC3)CC1	-16%
O=C(CSc1nc(C2CCCCC2)n(-c2ccccc2)n1)NCC(F)(F)F	-19.6%
COc1ccc(C(CNC(=O)COc2cc(C)ccc2Cl)N2CCCCC2)cc1 (stereo not drawn)	1.57%
O=C(Nc1cccc2ccccc12)N1CCc2ccccc2C1	-11.4%
Cc1cc(/C=C2\C(=O)NC(=O)N(c3ccc(Br)cc3)C2=O)c(C)n1C	-3.27%
Cc1nc(-c2ccccc2)sc1C(=O)NN	25.2%
CCC1(CC)NC(=O)N(CC(=O)N2CCN(c3ccccc3F)CC2)C1=O	9.58%
O=C(Nc1ccc([N+](=O)[O-])cc1)N1CCN(C(=O)C2CCCO2)CC1 (stereo not drawn)	0.636%

SMILES	hERG current change (%, negative = inhibition) at 10uM
Cc1ccnn1CC(=O)N/N=C/c1ccc([N+](=O)[O-])s1	-3.9%
COc1ccc(C2NCc3ccc4c(c3-n3cccc32)OCO4)cc1OC.Cl (stereo not drawn)	-19.7%
COc1ccc(OC)c(S(=O)(=O)n2ccnc2C)c1	0.0552%
CCc1c(-c2n[nH]c(=S)n2Cc2ccccc2)csc1C	-15%
CCOC(=O)C1=C(COC(=O)/C=C/c2ccco2)NC(=O)NC1C (stereo not drawn)	2.93%
COc1ccc(C(=O)Oc2cccnc2)cc1OC	-26.6%
Cc1cc(OCC(=O)N2CCN(c3ccccn3)CC2)cc(C)c1Br	-32.3%
C[C@H]1CCC[C@]2(CC(=O)c3cc(F)ccc3O2)C1	-11.9%
CCCCCCn1c(CN2CCCC(C)C2)nc2c1c(=O)n(C)c(=O)n2C (stereo not drawn)	-58.1%
CCN=C(NCC)SC1CC(=O)N(CCc2ccccc2)C1=O (stereo not drawn)	18.2%
COc1cc2c(cc1OC)C(C)N(C(=O)c1ccc(Br)o1)CC2 (stereo not drawn)	-16.1%
O=C(CSc1nnnn1-c1cccc2ccccc12)Nc1ccc(N2CCOCC2)c(Cl)c1	2.68%
CC(C)=CCc1c(O)ccc(C2COc3c(CC=C(C)C)c(O)cc(O)c3C2=O)c1O (stereo not drawn)	14.1%
Cc1c(Br)c(C(F)(F)F)nn1CC(=O)NCCCn1ccnc1	-37.5%
CCOC(=O)C1=C(C)OC(N)=C(C#N)C1c1cc2cc(C)ccc2nc1N1CCCCC1 (stereo not drawn)	-0.228%
COc1cc(SC)ccc1C(=O)N1CC(C)OC(C)C1 (stereo not drawn)	34%
Cc1ccc(C(=O)Nc2cccc(C(=O)NC3CCCCC3)c2)cc1	8.36%
COc1cc(C2SCC(=O)N2CCCN(C)C)cc(OC)c1OC.Cl (stereo not drawn)	17.3%
CCCCNC(=O)CC1C(=O)N(Cc2ccccc2)C(C)c2nc3ccccc3n21 (stereo not drawn)	-10.6%
Fc1cccc(Cc2noc(CN3CCCN(C4Cc5ccccc5C4)CC3)n2)c1	-86.5%
CC(C)Cn1c(-c2ccc(C#N)cc2)nc2c1c(=O)[nH]c(=O)n2CC(C)C	-28.3%
CN(c1ccccc1C(=O)NCC1CCCO1)S(C)(=O)=O (stereo not drawn)	14.1%
CC(C)N=C(NS(=O)(=O)c1ccccc1)C(Cl)(Cl)Cl	-5.84%

SMILES	hERG current change (%, negative = inhibition) at 10uM
CN1CCN(CC(=O)Nc2nnc(-c3cccs3)s2)CC1	0.0993%
COc1ccc(NC(=O)c2ccc(OC)cc2)cc1	-30%
COC(=O)c1cccc(NC(=O)/C=C/c2ccc3c(c2)OCO3)c1	-22.2%
N=c1c(C(=O)NCCN2CCOCC2)cc2c(=O)n3ccccc3nc2n1CCc1ccccc1	-72.5%
O=C(CSCc1ccccc1)Nc1cccc(F)c1	-4.88%
COc1ccc(OCC2CNC(=O)O2)cc1 (stereo not drawn)	-26.2%
COCCNc1ccc(-c2n[nH]c(=O)c3ccccc23)cc1[N+](=O)[O-]	9.51%
CN1C(=C2C(=O)OC(C)(C)OC2=O)Sc2ccccc21	1.31%
CCOC(=O)C1(CCOc2ccccc2)CCN(CC(O)CO)CC1 (stereo not drawn)	-26.9%
Cl.c1ccc(CCCN2CCN(CCOC(c3ccccc3)c3ccccc3)CC2)cc1	-71.8%
CC(OC(=O)/C(C#N)=C/c1ccc(N(C)C)cc1)C(=O)NCc1ccco1 (stereo not drawn)	11.8%
CCOc1ccc(NC(=O)CN2C(=O)CCSc3ccc(S(=O)(=O)N4CCCC4)cc32)cc1	-7.71%
Nc1n[nH]c(C(F)(F)F)c1-c1ccccc1	1.9%
C=CCn1c(C)c(C=C2C(=O)NC(=O)NC2=O)c2ccccc21	17.3%
Cc1cccc(C(=O)Nc2sc3c(c2C(=O)O)CCCC3)c1	38.1%
O=S(=O)(c1cccc(-c2cn3cccnc3n2)c1)N1CCOCC1	-6.12%
COc1ccc(CCN(C)Cc2ccc(C(=O)Nc3ccccc3)cc2)cc1OC	-67.3%
Cc1ccc(C(=O)CSc2ccc(-c3ccncc3)nn2)cc1	6.33%
CCCn1cc(CN2CCC(N3CCC(C(=O)N4CCOCC4)CC3)CC2)c(C)n1	8.86%
CCN1CCN(c2nc3c(c(=O)[nH]2)CCC3)CC1	8.17%
CN(Cc1cnn(-c2ccc(F)cc2)c1)Cc1nc(Cc2ccccc2)no1	-27.1%
